According to the supplement of paper PMC3334620:
Whole data set: some 33,000 sequences, median “E-score (-0.5 to 0.5)” near -0.017, cut for the highest 2% near 0.3. The list shows a part of the results.

molecular target: T1, Sut1 (UniProt P53032); experiment: PBM E-score (8-mer binding enrichment) (E-score (-0.5 to 0.5)); higher = stronger / more preferred TF binding; most listed sequences are background and not binding sites; details: protein concentration: 200 nM; construct: GST-full length
T1 sequence: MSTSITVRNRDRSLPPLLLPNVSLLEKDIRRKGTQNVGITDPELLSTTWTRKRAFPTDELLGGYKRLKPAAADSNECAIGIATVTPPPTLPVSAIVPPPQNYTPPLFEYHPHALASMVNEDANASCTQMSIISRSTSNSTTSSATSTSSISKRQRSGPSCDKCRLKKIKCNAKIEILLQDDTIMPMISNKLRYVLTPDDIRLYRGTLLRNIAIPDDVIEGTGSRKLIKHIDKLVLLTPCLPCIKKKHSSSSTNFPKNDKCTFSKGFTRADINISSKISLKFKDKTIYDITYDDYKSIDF
How it was run: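 Bound GST-tagged yeast transcription factors, applied at about 100-200 nM to double-stranded universal all-10-mer Agilent arrays, were detected with fluorescent anti-GST. Scans were normalised with masliner. A modified Wilcoxon-Mann-Whitney statistic, the E-score, was assigned to each ungapped eight-base word pooled with its reverse complement by the Universal PBM Analysis Suite.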

First: GCGTTTCA
Second: CGTTACAC
The “PBM E-score” value of the first is lower: -0.051 for the first, -0.0419 for the second.

First: ATTACACC
Second: CTACGCAC
The “PBM E-score” value of the first is higher: 0.116 for the first, -0.113 for the second.

First: CATCTGAC
Second: CTACTTAC
The “PBM E-score” value of the first is lower: -0.163 for the first, 0.0799 for the second.

First: AACTATCC
Second: AACAATTA
The “PBM E-score” value of the first is lower: 0.00647 for the first, 0.292 for the second.

Compared with GGTGGGAC, GCCGAACC is higher in “PBM E-score” value: -0.226 for the first, -0.00119 for the second.

Going from AATTCTGT to AGCTATGC, the “PBM E-score” value falls from 0.184 to -0.227.

Going from CAATGGCA to AGCCGGGG, the “PBM E-score” value falls from 0.0358 to -0.116.

First: CACATAGC
Second: CCAGTACC
The “PBM E-score” value of the first is higher: -0.00421 for the first, -0.034 for the second.

Going from GAGTAGTA to CCTACCCG, the “PBM E-score” value falls from 0.0911 to -0.139.

Going from AATCCGCG to ATGGCGCA, the “PBM E-score” value rises from -0.103 to -0.056.

Compared with CGATCGAA, ACTATTTA is higher in “PBM E-score” value: 0.127 for the first, 0.246 for the second.

First: GTGTTTGA
Second: ACACTGAT
The “PBM E-score” value of the first is higher: 0.156 for the first, -0.0703 for the second.

Compared with TATTTGCA, TGTCCACA is higher in “PBM E-score” value: 0.0534 for the first, 0.185 for the second.

Going from CCCAGTTC to GGAGCCGA, the “PBM E-score” value falls from -0.0702 to -0.123.

First: AAGTATTG
Second: CAGCACTA
The “PBM E-score” value of the first is higher: 0.0899 for the first, -0.0228 for the second.

Compared with GCTCCGAA, AGTATTCC is lower in “PBM E-score” value: 0.439 for the first, 0.128 for the second.

Compared with AATCTTCA, AGGAAGCC is lower in “PBM E-score” value: 0.204 for the first, -0.168 for the second.

Going from CGACCCAC to GAACGGAC, the “PBM E-score” value rises from 0.0372 to 0.29.

Going from AAGCATTG to GTGGAGCA, the “PBM E-score” value falls from -0.114 to -0.132.

Going from AAGGGTAC to AACAAGTG, the “PBM E-score” value rises from -0.11 to 0.0425.

First: AGGAGATC
Second: AGCCTTAA
The “PBM E-score” value of the first is lower: 0.0207 for the first, 0.0763 for the second.

Going from GGTTAGCA to GGCATCCA, the “PBM E-score” value falls from -0.0644 to -0.256.

Going from CCGAGGTA to GAATTCAA, the “PBM E-score” value rises from -0.112 to 0.272.

Compared with AAAAATGC, GAAGCTTC is lower in “PBM E-score” value: 0.149 for the first, -0.123 for the second.

Compared with CTTGCCGC, CTATTCGA is higher in “PBM E-score” value: -0.242 for the first, -0.00526 for the second.

First: AGATGCAC
Second: CAAAGTCA
The “PBM E-score” value of the first is lower: -0.0648 for the first, 0.0849 for the second.

Going from CTAATTAA to ACAAACCC, the “PBM E-score” value falls from 0.0567 to -0.0391.

First: CACCGGAG
Second: AGGGGAGC
The “PBM E-score” value of the first is higher: 0.437 for the first, -0.291 for the second.

First: AACAATAT
Second: GGACGGCC
The “PBM E-score” value of the first is higher: 0.331 for the first, -0.285 for the second.

Compared with TACGCCCA, CATCCTTC is higher in “PBM E-score” value: -0.0717 for the first, -0.0679 for the second.

First: CGGTATAG
Second: CTTAATGC
The “PBM E-score” value of the first is higher: -0.0612 for the first, -0.0825 for the second.

First: AAACGGTG
Second: AAACAATT
The “PBM E-score” value of the first is lower: 0.0222 for the first, 0.2 for the second.

First: CATACAAC
Second: CCCCTCAG
The “PBM E-score” value of the first is higher: 0.0999 for the first, -0.38 for the second.

Compared with AACCTGGA, CTCCTACA is lower in “PBM E-score” value: 0.0664 for the first, -0.00847 for the second.

Compared with CCGGATTC, AGCTTCCC is lower in “PBM E-score” value: 0.106 for the first, -0.182 for the second.

Going from AACCACTT to TGCTACAA, the “PBM E-score” value rises from 0.0795 to 0.157.

First: AAGTCTAA
Second: TCTCATAA
The “PBM E-score” value of the first is lower: 0.00927 for the first, 0.118 for the second.

Going from TGTAGAAA to CGGGTCGC, the “PBM E-score” value falls from -0.0101 to -0.0987.

Compared with TAGGTAAA, CAATTTAG is higher in “PBM E-score” value: 0.102 for the first, 0.181 for the second.

First: CCTTCGCC
Second: ATGCTCAC
The “PBM E-score” value of the first is lower: -0.108 for the first, -0.0432 for the second.

First: ACATCTCC
Second: ATTCGCGG
The “PBM E-score” value of the first is higher: 0.247 for the first, 0.118 for the second.

First: ATTCCAAG
Second: ATGTCCCA
The “PBM E-score” value of the first is higher: 0.0681 for the first, -0.178 for the second.

Compared with GGATGCTA, ATGTGGTC is higher in “PBM E-score” value: -0.228 for the first, -0.0655 for the second.

First: TAAGTGCA
Second: AATCATAA
The “PBM E-score” value of the first is lower: 0.106 for the first, 0.173 for the second.

Compared with ACCCAAAT, GATAGGGA is lower in “PBM E-score” value: 0.00677 for the first, -0.0268 for the second.

Compared with AGACACTA, CCGCTACC is lower in “PBM E-score” value: 0.096 for the first, -0.0517 for the second.

Compared with GAGAAAGC, CCAGTTGA is lower in “PBM E-score” value: 0.0266 for the first, -0.0814 for the second.
